Laboratory results from PubChem BioAssay AID1347120 (National Center for Advancing Translational Sciences (NCATS), 2019).
Values joined by “and” are separate entries in the source; they are usually repeats but may differ in a detail not shown here. Equal values may be shown once. Among all 390,000 compounds or so, about 930 (0.24%) were called active. Inconclusive results, whose numbers are uncertain, are shown with a selection of clear calls. Calls come from the whole dose curve; as a rule, active = well fitted activation curve with a large enough effect; inconclusive = small, poorly fitted or top-dose-only effect; inactive = no such curve, though single readings can be large or run the other way. Potencies of inconclusive entries are doubtful fits and often do not repeat.

Test: qHTS for Suppressors of FUS Proteinopathy: Primary screen using FUS-linked yeast assay; note: nearly all actives have a fitted effect of over 55% in size;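 for growth rescue (activation): plate controls were DMSO vehicle for no effect and reference control for full effect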
Details: S. cerevisiae FUS-expressing, OD600, 24 h; Potency: growth rescue; growth rescue (activation): at 76.6 µM (top of the series)
Summary of the method: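 Compound concentration series was pinned onto galactose-induced FUS-expressing yeast seeded at OD 0.005. Plates sat 24hr at 30C; absorbance at 600 nm gave growth. DMSO served as background control.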
Potency is the fitted concentration of half-maximal effect; tags give direction and shape of the fitted curve.

Row | Structure (SMILES) | growth rescue (activation) | Potency
1 | CC(=Nc1ccc(Br)cc1)c1sc2ccccc2c1O | inactive: -5.4% | –
2 | Cc1ccc(CN2C(=O)C(CC(C)C)Nc3ncnc(N4CCN(c5ccccc5)CC4)c32)cc1 (stereo unspecified) | – | inconclusive: 35.5 µM [activator, partial curve, poor fit] and inconclusive: 25.1 µM [activator, partial curve]
3 | COc1ccc(CN(C)C(=O)C2CCCN(c3nc4ccccc4o3)C2)cc1 (stereo unspecified) | inactive: 17.1% | –
4 | C=CCN(C(=O)COc1ccccc1)c1nnc(-c2ccncc2)s1 | inactive: 32.8% | –
5 | O=C(c1ccc(-c2cccc(C(F)(F)F)c2)o1)N1CCCCCCC1 | – | inconclusive: 39.8 µM [activator, single point]
6 | O=C(c1ccccc1F)N1CCN(c2ccc([N+](=O)[O-])c(NCC3CCCO3)c2)CC1 (stereo unspecified) | – | inconclusive: 31.6 µM [activator, single point]
7 | COc1ccccc1C(=O)Nc1ccc(S(=O)(=O)Nc2onc(C)c2C)cc1 | inactive: 22% | –
8 | COC(=O)[C@]12CCCCC=C1N(Cc1ccc(Cl)cc1Cl)C(=O)[C@H](CC(=O)NCCCN1CCCC1=O)C2 | – | inconclusive: 28.2 µM [activator, single point]
9 | O=C1OCCN1C(=O)[C@H]1[C@H](c2ccccc2)C(c2ccc(F)cc2)=NN1c1ccccc1 | – | inconclusive: 20 µM [activator, partial curve, poor fit]
10 | CCOC(=O)NN=C1c2ccccc2-c2ccccc21 | inactive: 24.5% | –
11 | Cc1cc(Cl)ccc1N(CC(=O)N=Nc1c(O)[nH]c2ccccc12)S(C)(=O)=O | – | inconclusive: 28.2 µM [activator, single point]
12 | COc1ccc(C2=Cc3ccccc3C(CC(=O)C3CC3)N2c2ccc(-c3cc(OC)c(OC)c(OC)c3)cc2)cc1 (stereo unspecified) | – | inconclusive: 28.2 µM [activator, single point]
13 | Cc1ccc(C(=O)N/N=C/c2ccc(-c3ccc(Br)cc3[N+](=O)[O-])o2)o1 | – | inconclusive: 35.5 µM [activator, single point]
14 | Cc1ccccc1-c1cc2nc(NCc3ccc(N(C)C)cc3)n(C)c(=O)c2s1 | – | inconclusive: 35.5 µM [activator, single point]
15 | O=c1c(Cl)c(Cl)cnn1Cc1nnc(-c2ccccc2Br)o1 | inactive: 1.72% | –
16 | O=C(O)Cc1sc(Nc2ccccc2)nc1-c1cccs1 | inactive: 12.5% | –
17 | Cc1cc(C)nc(-n2nc(C)c(C3(O)C(=O)Nc4ccccc43)c2N)n1 (stereo unspecified) | – | inconclusive: 25.1 µM [activator, single point]
18 | Cc1ccc(S(=O)(=O)Nc2ccc(-n3cnnn3)cc2)cc1 | inconclusive: -91.1% [activator] | –
19 | Cn1c(CCCOc2ccc(Cl)cc2Cl)nnc1SCC(=O)Nc1nccs1 | inactive: 6.01% | –
20 | CCOc1ccc(CCN2C(=S)N([C@@H](Cc3ccccc3)CN3CCCC3CN3C(=S)NC[C@@H]3Cc3ccccc3)C[C@@H]2Cc2ccc(O)cc2)cc1 (stereo partly specified) | – | active: 11.2 µM
21 | O=C(NC(Nc1nc2ccc([N+](=O)[O-])cc2s1)(C(F)(F)F)C(F)(F)F)c1cccnc1 | inactive: -20.9% | –

Row | Structure (SMILES) | growth rescue (activation) | Potency
22 | COc1ccccc1C(=O)Nc1ccc2c(c1)nc1n2CCSC1 | – | inconclusive: 31.6 µM [activator, partial curve, poor fit]
23 | CC(O)(c1cccc(F)c1)c1nc(-c2cc3ccccc3o2)cs1 (stereo unspecified) | – | inconclusive: 39.8 µM [activator, single point]
24 | Cc1c(S(=O)(=O)N(C)C2CCCCC2)c(=O)n(C)c(=O)n1C | inactive: -7.98% | –
25 | COc1ccc(CNC(=O)Cc2c(C)c3c(O)cc(C)cc3oc2=O)cc1 | inactive: 15% | –
26 | CC(C)c1ccc(-c2nn(-c3ccccc3)cc2C2C(C#N)=C(N)OC3=C2C(=O)CC(C)(C)C3)cc1 (stereo unspecified) | – | inconclusive: 28.2 µM [activator, single point]
27 | CC(C)(C)OC(=O)C[C@H]1C/C=C\C[C@@H](CC(=O)N(CCO)Cc2ccccc2)C(=O)NC[C@@H](c2ccccc2)OC1=O | – | inconclusive: 14.1 µM [activator, partial curve]
28 | O=C(CNc1ccccc1F)Nc1cccc(S(=O)(=O)N2CCCCC2)c1 | – | inconclusive: 39.8 µM [activator, single point]
29 | O=C(NCc1ccc(F)cc1)c1cc(C2CCCCN2S(=O)(=O)c2cccc3cccnc23)on1 (stereo unspecified) | – | inconclusive: 25.1 µM [activator, partial curve, poor fit]
30 | COc1ccc(-c2cc(NC=O)c3ncc(-c4cccc(C(=O)N(C)C)c4)n3c2)c(OC)c1 | – | inconclusive: 25.1 µM [activator, single point]
31 | O=C(CSc1nnc2ccc(-c3ccccn3)nn12)Nc1cccc(F)c1 | inactive: -12.2% | –
32 | CCc1ccc2c(c1)C1(NN=C(c3ccccc3)S1)C(=O)N2 (stereo unspecified) | – | inconclusive: 25.1 µM [activator, partial curve, poor fit]
33 | Cc1cc(-n2c(SCc3ccccc3F)nc3[nH]ncc3c2=O)ccc1Cl | inactive: 44.3% | –
34 | C[C@H](CO)N1C[C@H](C)[C@@H](CN(C)Cc2ccc(Cl)c(Cl)c2)Oc2c(NC(=O)CCC(F)(F)F)cccc2C1=O | – | inconclusive: 22.4 µM [activator, single point]
35 | COc1ccc(OC)c(NC(=O)c2cc(-c3ccc(F)cc3OC(C)C)n[nH]2)c1 | – | inconclusive: 35.5 µM [activator, single point]
36 | COCCNc1nc2cc(-c3ccc(C)cc3)sc2c(=O)n1C | inactive: -6.22% | –
37 | CC(C)(C)OC(=O)N1CCC(c2c(C(=O)NCc3ccco3)cnn2-c2ccc(F)cc2F)CC1 | inactive: 35.4% | –
38 | Cc1ccc(Nc2nc(-c3sc(N)nc3C)cs2)cc1 | – | inconclusive: 50.1 µM [activator, single point]
39 | CCOc1cc(/C=C2\CN(C)C/C(=C\c3ccc(O)c(OCC)c3)C2=O)ccc1O | – | inconclusive: 35.5 µM [activator, partial curve, poor fit]
40 | CCN1CCN(CCNC(=O)c2ccc(/C=C3/Sc4ccccc4N(Cc4cccc(C)c4)C3=O)cc2)CC1 | – | inconclusive: 22.4 µM [activator, single point]
41 | COc1ccc(Cn2c(NC(=O)c3ccccc3)nc(Cc3ccccc3)c2Cc2ccccc2)c(OC)c1 | – | inconclusive: 31.6 µM [activator, single point]
